# Measured values from PubChem BioAssay AID1631 (National Center for Advancing Translational Sciences (NCATS), 2009).
# In all, about 260,000 compounds went through this assay and about 890 (0.34%) were called active. Inconclusive results, whose numbers are uncertain, are shown with a selection of clear calls. Calls come from the whole dose curve; as a rule, active = well fitted activation curve with a large enough effect; inconclusive = small, poorly fitted or top-dose-only effect; inactive = no such curve, though single readings can be large or run the other way. No potency is given beside an inconclusive call; the fits are too rough.
# Molecular target: Pyruvate kinase PKM (Homo sapiens) (UniProt P14618)
# Sequence of UniProt P14618 (P14618 whole entry, looked up, canonical isoform): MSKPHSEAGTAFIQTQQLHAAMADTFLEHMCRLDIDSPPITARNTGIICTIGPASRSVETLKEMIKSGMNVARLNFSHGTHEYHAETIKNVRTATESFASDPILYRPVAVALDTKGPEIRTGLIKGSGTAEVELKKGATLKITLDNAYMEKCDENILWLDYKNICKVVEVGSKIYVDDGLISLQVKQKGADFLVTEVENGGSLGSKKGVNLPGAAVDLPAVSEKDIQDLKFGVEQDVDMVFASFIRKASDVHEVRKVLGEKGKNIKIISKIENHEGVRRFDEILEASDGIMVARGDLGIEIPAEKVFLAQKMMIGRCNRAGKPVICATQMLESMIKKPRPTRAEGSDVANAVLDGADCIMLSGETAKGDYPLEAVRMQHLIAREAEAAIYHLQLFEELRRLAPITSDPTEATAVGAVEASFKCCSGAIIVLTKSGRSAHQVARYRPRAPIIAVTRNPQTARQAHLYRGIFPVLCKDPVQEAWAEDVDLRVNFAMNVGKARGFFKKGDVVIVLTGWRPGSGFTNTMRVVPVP
# Assay: qHTS Assay for Activators of Human Muscle isoform 2 Pyruvate Kinase; note: nearly all actives have a fitted effect of over 55% in size
# Conditions: purified PKM2, Kinase-Glo ATP luminescence; Potency: activation; activation: at 57.5 µM (top of the series), 0% is enzyme alone, no compound
# Procedure, shortened: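 hPK-M2, >95% pure; 0.1 mM ADP / 0.5 mM PEP final; imidazole pH7.2 buffer w/ 7 mM MgCl2, 50 mM KCl; 1 h RT; Kinase-Glo lum. Intermediate enzyme activity for dual inhibitor/activator qHTS.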
# % is set by controls: 0 for no effect and ±100 for the full control effect; potency is the fitted concentration of half-maximal effect; tags give direction and shape of the fitted curve.
SMILES,activation,Potency
Cc1cc(N2C(=O)C(O)=C(C(=O)c3cc4ccccc4o3)C2c2ccc(OC(C)C)cc2)no1 (stereo not given),"inactive: -5.58% [at 0.46 µM, 0% is enzyme alone, no compound]",–
c1ccc(Cn2ncc3c(N4CCOCC4)ncnc32)cc1,–,"inconclusive [rising, partial curve]"
CC(=O)c1c(C)[nH]c(C(=O)Nc2cccc(S(=O)(=O)N(C)c3ccccc3)c2)c1C,–,"inconclusive [rising, partial curve]"
Cc1ccc(-c2csc(NC(=O)c3cccc(N4C(=O)CCC4=O)c3)n2)o1,–,"inconclusive [rising, full curve]"
CCN(CCn1cccn1)C(=O)c1cc(COc2cc(C)ccc2C)on1,inactive: -1.26%,–
COc1ccc(NN=Nc2nc3c([nH]2)c(=O)n(C)c(=O)n3C)cc1,–,"inconclusive [rising, single point]"
CC(C)(C)NS(=O)(=O)c1ccc(NC(=S)NC(=O)C2CC2)cc1,inactive: -0.97%,–
Cc1ccc(N2C(=O)CS(=O)C(c3ccccc3)C2=O)cc1C (stereo not given),–,"inconclusive [rising, partial curve]"
Cc1[nH]nc2nc(SCC(=O)NCC3CCCO3)n(-c3ccc(Br)cc3)c(=N)c12 (stereo not given),–,"inconclusive [rising, single point]"
O=C(CCNc1ccc(Cl)c(C(F)(F)F)c1)c1ccco1,inactive: 3.05%,–
O=S(=O)(c1ccc(F)cc1)N1CCN(CC2CC3C=CC2C3)CC1 (stereo not given),–,"inconclusive [rising, partial curve]"
CCc1cn([C@H]2C[C@H](O)[C@@H](CO)O2)c(=O)[nH]c1=O,inactive: 1.05%,–
Cn1c(=O)cc(N2CCN(C(=O)c3ccco3)CC2)[nH]c1=O,–,"inconclusive [rising, single point]"
Cc1ccc(S(=O)(=O)N2CCN=C2SCc2cccnc2)cc1,–,"inconclusive [rising, partial curve]"
CCc1nc(NCCc2ccccn2)c2nnn(Cc3ccccc3F)c2n1,–,active: 25.1 µM
COC(=O)c1ccc(C(NC(=O)OCc2ccccc2)/C(=C/[C@@H](C)C(=O)NCC2CC2)c2cccnc2)cc1 (stereo not given in full),inactive: -9.12%,–
Cn1c(C(=O)NCc2ccc3c(c2)OCO3)cc2sccc21,–,"inconclusive [rising, partial curve]"
CCNC(=S)N/N=C(\C)c1cccc([N+](=O)[O-])c1,inactive: 1.12%,–
O=C(Cc1cccs1)Nc1nnc(SCc2ccc(F)cc2)s1,–,"inconclusive [rising, full curve]"
CCC(=O)Nc1nonc1-c1nc2ccccc2n1N(C(=O)CC)C(=O)CC,inactive: -3.89%,–
